Reference: the supplement of paper PMC12217912
The other results are listed elsewhere or left out. The full chains were built here from the parent and the listed change. Values near 0.05 are background.

B1: TEV protease; numbered along this chain (parent)
chain: MGESLFKGPRDYNPISSSICHLTNESDGHTTSLYGIGFGPFIITNKHLFRRNNGTLVVQSLHGVFKVKDTTTLQQHLVDGRDMIIIRMPKDFPPFPQKLKFREPQREERICLVTTNFQTKSMSSMVSDTSCTFPSGDGIFWKHWIQTKDGQCGSPLVSTRDGFIVGIHSASNFTNTNNYFTSVPKNFMELLTNQEAQQWVSGWRLNADSVLWGGHKVFMVKPEEPFQPVKEATQL

Variants of: B1
Assay: raw area under fraction-flipped curve 0-4 h after induction (AUC4h, not background-subtracted), DNA-recorder readout of cleavage of the substrate (dimensionless); higher = more cleavage of the substrate by the protease variant
Conditions: temperature: 34 °C; time window: 0-4 h after rhamnose induction
Method: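 In vivo DNA recorder in E. coli TOP10(DE3) ΔrhaA at 34 °C. Each TEVp single-site mutant (parent TEVp 0) is paired with a single-site variant of the 7-mer TEVs (canonical ENLYFQ|S). The substrate sits between flexible linkers in a Bxb1-sfGFP-TEVs-SsrA fusion, so cleavage stabilises Bxb1 and speeds flipping of a recombination array, read by NGS. The value is the raw area under the fraction-flipped curve over 0-4 h after rhamnose induction (AUC4h), with ≥20 reads per time point. It is not background-subtracted; inactive controls average about 0.047.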
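Also: Bxb1 expression induced with 0.2% (w/v) L-rhamnose at OD600 near 0.5, cultures sampled hourly, flipped fraction per protease–substrate barcode pair counted by paired-end Illumina sequencing.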

| Variant | area with substrate ENLYDQS | area with substrate ENLYEQS | area with substrate ENLYHQS | area with substrate ENLYIQS | area with substrate ENLYKQS | area with substrate ENLYLQS | area with substrate ENLYMQS | area with substrate ENLYNQS | area with substrate ENLYPQS | area with substrate ENLYQQS | area with substrate ENLYTQS | area with substrate ENLYGQS | area with substrate ENLYSQS | area with substrate ENLYYQS | area with substrate ENLYWQS | area with substrate ENLYVQS | area with substrate ENLYRQS |
| --- | --- | --- | --- | --- | --- | --- | --- | --- | --- | --- | --- | --- | --- | --- | --- | --- | --- |
| G2Y | 0.0835 | 0.0784 | 0.0582 | 0.181 | 0.0668 | 0.124 | 0.0539 | 0.0697 | 0.13 | 0.0633 | 0.104 | – | – | – | – | – | – |
| E3V | 0.0551 | – | 0.0539 | 0.145 | – | 0.109 | 0.15 | – | 0.0717 | – | 0.0095 | 0.0533 | 0.0924 | 0.0758 | – | – | – |
| L5T | 0.0656 | – | 0.0736 | 0.152 | 0.0231 | – | 0.107 | 0.0662 | – | 0.0546 | – | 0.067 | 0.0868 | – | 0.0621 | – | – |
| K7V | 0.0442 | 0.0684 | – | 0.105 | – | – | – | 0.0661 | – | 0.0686 | – | 0.0667 | 0.0682 | 0.0604 | – | 0.0751 | – |
| K7Y | 0.118 | 0.0741 | – | 0.142 | – | – | – | 0.0596 | – | – | – | – | – | 0.065 | 0.0924 | 0.0981 | – |
| Y12R | 0.0616 | 0.0788 | 0.0616 | 0.134 | 0.0609 | 0.0947 | 0.0691 | 0.0561 | 0.0819 | 0.0496 | – | – | – | 0.0779 | 0.0705 | 0.157 | – |
| I15G | 0.0224 | 0.0581 | 0.0681 | – | – | 0.052 | 0.0631 | 0.0565 | 0.0585 | 0.0559 | 0.0565 | 0.0572 | 0.0617 | – | 0.0724 | – | 0.0466 |
| E25S | 0.0756 | 0.0613 | 0.0789 | – | – | 0.0864 | 0.11 | 0.0593 | 0.0825 | – | 0.0871 | 0.0415 | 0.0789 | 0.0323 | 0.0808 | 0.128 | 0.0657 |
| G28Y | 0.0674 | 0.0703 | 0.0578 | 0.0699 | 0.0785 | – | 0.0918 | 0.0449 | – | 0.0512 | 0.0555 | 0.067 | 0.0833 | 0.0524 | 0.0609 | 0.121 | 0.0588 |
| L33D | 0.0758 | 0.0644 | 0.0605 | 0.0692 | 0.0694 | – | 0.0522 | 0.054 | 0.0581 | – | 0.0538 | 0.0619 | – | 0.0602 | 0.058 | 0.0589 | 0.0607 |
| R51N | 0.0647 | – | 0.0669 | – | – | – | – | 0.0751 | – | – | – | – | – | – | – | 0.0652 | – |
| R51S | 0.0584 | 0.0659 | – | 0.144 | 0.0669 | – | 0.0745 | 0.0682 | – | – | – | – | – | – | – | – | 0.0659 |
| V57I | 0.0704 | 0.0549 | 0.0699 | 0.136 | 0.0711 | – | 0.111 | – | 0.0912 | 0.0737 | 0.0877 | 0.0713 | 0.0797 | 0.0709 | 0.0815 | 0.12 | – |
| V58L | 0.0589 | 0.0567 | 0.0722 | 0.126 | 0.065 | – | – | – | 0.0715 | – | 0.0773 | – | – | 0.0667 | 0.113 | 0.133 | – |
| F65P | 0.0486 | 0.0547 | 0.0483 | 0.0545 | 0.0454 | 0.0426 | 0.051 | – | 0.0469 | 0.0505 | 0.0602 | – | – | 0.0362 | 0.0392 | – | – |
| F65Q | 0.0679 | – | – | – | 0.0596 | – | – | 0.0623 | 0.101 | – | 0.0739 | 0.0562 | – | – | – | – | – |
| F65V | 0.0471 | – | – | – | – | – | – | 0.0799 | 0.0735 | – | – | – | – | – | – | – | 0.0678 |
| K66E | 0.0394 | 0.0687 | – | 0.0884 | 0.0651 | – | – | – | 0.0807 | – | – | 0.0606 | – | 0.068 | 0.0649 | – | 0.0639 |

| Variant | area with substrate ENLYDQS | area with substrate ENLYEQS | area with substrate ENLYHQS | area with substrate ENLYIQS | area with substrate ENLYKQS | area with substrate ENLYLQS | area with substrate ENLYMQS | area with substrate ENLYNQS | area with substrate ENLYPQS | area with substrate ENLYQQS | area with substrate ENLYTQS | area with substrate ENLYGQS | area with substrate ENLYSQS | area with substrate ENLYYQS | area with substrate ENLYWQS | area with substrate ENLYVQS | area with substrate ENLYRQS |
| --- | --- | --- | --- | --- | --- | --- | --- | --- | --- | --- | --- | --- | --- | --- | --- | --- | --- |
| K66W | 0.0441 | 0.0454 | 0.0527 | 0.0806 | – | – | 0.0808 | 0.0774 | 0.094 | – | – | 0.0601 | 0.0771 | 0.0692 | – | 0.12 | 0.0617 |
| T70F | 0.074 | 0.0561 | – | – | 0.0514 | – | 0.0364 | 0.0614 | 0.0662 | – | 0.0594 | – | – | – | – | 0.0312 | 0.0648 |
| Q74I | 0.0676 | 0.057 | – | 0.0785 | – | – | – | – | 0.064 | – | – | 0.0557 | 0.0496 | – | 0.0746 | – | – |
| Q75M | 0.0643 | 0.0702 | – | 0.129 | 0.0621 | – | – | 0.0432 | – | – | – | 0.0675 | 0.0237 | 0.0622 | – | 0.118 | – |
| H76G | 0.0462 | – | – | 0.136 | – | – | 0.1 | – | – | – | 0.0836 | – | – | – | 0.0806 | – | 0.0611 |
| H76T | 0.0591 | 0.0683 | 0.0702 | 0.0658 | – | – | – | 0.044 | 0.0784 | – | 0.0666 | – | 0.0578 | – | 0.0633 | – | 0.0617 |
| D82V | 0.0645 | 0.047 | 0.0208 | – | – | – | 0.0586 | 0.051 | – | – | 0.0519 | 0.0613 | – | – | 0.0473 | – | – |
| M83E | 0.0407 | 0.0516 | 0.0605 | 0.0474 | – | – | 0.0503 | 0.0557 | 0.067 | 0.0704 | – | 0.0407 | – | – | – | 0.0557 | 0.0576 |
| I84N | 0.0653 | 0.0625 | 0.0606 | – | 0.0425 | – | – | – | – | 0.0644 | 0.0543 | – | 0.0575 | – | – | – | – |
| I84V | 0.0596 | 0.0577 | 0.0478 | 0.102 | 0.0724 | – | – | 0.0613 | – | – | – | – | – | – | 0.0833 | 0.0951 | 0.0549 |
| I85H | 0.0811 | 0.0634 | 0.0572 | 0.0842 | – | – | 0.0501 | 0.0458 | – | 0.0496 | – | – | 0.0424 | 0.0487 | 0.102 | 0.0565 | 0.0491 |
| R87D | 0.0513 | – | – | – | 0.0187 | 0.0455 | – | – | – | – | – | – | 0.0685 | 0.0483 | – | – | 0.0392 |
| R87Q | 0.0584 | 0.064 | 0.136 | 0.184 | – | – | – | – | 0.0781 | – | – | – | – | – | – | 0.129 | 0.0436 |
| M88L | 0.0584 | 0.0695 | – | 0.106 | 0.0493 | – | 0.0908 | – | 0.0767 | – | – | – | 0.0715 | – | 0.105 | – | – |
| P89A | 0.0637 | – | – | – | 0.0472 | – | 0.0636 | 0.0516 | 0.0681 | – | 0.068 | – | 0.0765 | – | – | – | 0.0559 |
| P89C | 0.0651 | – | 0.0661 | – | – | – | – | 0.0705 | – | – | – | 0.0638 | – | – | – | – | 0.043 |
| D91T | 0.0832 | – | 0.058 | – | 0.0249 | – | 0.0861 | 0.0643 | 0.0709 | 0.0697 | – | 0.0651 | 0.05 | – | – | – | – |
